From the antibiotic and cytotoxicity screens of Wong et al. (2023)
The list shows a part of the results.

Legend:
[1] = test system: HSkMC (human skeletal muscle cells); test: cytotoxicity call (relative viability < 0.9); details: 10 µM
[2] = test system: S. aureus RN4220; test: growth inhibition call (relative growth <= 0.2); details: 50 µM

Structure (SMILES)	cytotoxicity call [1]	growth inhibition call [2]
COc1cc2c(cc1OC)-c1cc3ccc(OC)c(OC)c3c[n+]1CC2.[Cl-]	inactive	inactive
COc1ccc(S(=O)(=O)N[C@H]2CC[C@@H](CCNC(=O)CN3CCOCC3)O[C@@H]2CO)cc1	inactive	inactive
O=C(OC[C@H]1O[C@@H](OC(=O)c2cc(O)c(O)c(O)c2)[C@H](O)[C@@H](O)[C@@H]1O)c1cc(O)c(O)c(O)c1	inactive	inactive
CC1(C)CCC2(C(=O)O)CCC3(C)C(=CCC4C5(C)CCC(O)C(C)(CO)C5CCC43C)C2C1 (stereo not drawn)	inactive	inactive
